PubChem BioAssay AID1745853 (National Center for Advancing Translational Sciences (NCATS), 2022)
The list shows a part of the results. The main result of the screen is listed elsewhere. These columns were measured beside it and carry no call.

What was measured:
Assay in all cases: Primary Screen for Target Class Profiling of Small Molecule Inhibitors of Methyltransferases
[1] = target: Glycine N-methyltransferase (Homo sapiens) (UniProt Q14749); details: purified enzyme, MTase-Glo SAH luminescence; measured here: GNMT inhibition; at 40 µM; stronger effect = lower value
Procedure, shortened: (§1)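 Each enzyme was assayed with SAM and its substrate. SAH formation detected by MTase-Glo luminescence; single-point 40 uM screen[…].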

[2] = target: Guanidinoacetate N-methyltransferase (Homo sapiens) (UniProt Q14353); details: purified enzyme, MTase-Glo SAH luminescence; measured here: GAMT inhibition; at 40 µM; stronger effect = lower value
Procedure, shortened: as §1

[3] = target: Histamine N-methyltransferase (Homo sapiens) (UniProt P50135); details: purified enzyme, MTase-Glo SAH luminescence; measured here: HNMT inhibition; at 40 µM; stronger effect = lower value
Procedure, shortened: as §1

[4] = target: Nicotinamide N-methyltransferase (Homo sapiens) (UniProt P40261); details: purified enzyme, MTase-Glo SAH luminescence; measured here: NNMT inhibition; at 40 µM; stronger effect = lower value
Procedure, shortened: as §1

[5] = target: Phenylethanolamine N-methyltransferase (Homo sapiens) (UniProt P11086); details: purified enzyme, MTase-Glo SAH luminescence; measured here: PNMT inhibition; at 40 µM; stronger effect = lower value
Procedure, shortened: as §1
On the % scale 0 is the no-effect control and ±100 the full control effect.

SMILES	activity change, negative = inhibition [1]	activity change, negative = inhibition [2]	activity change, negative = inhibition [3]	activity change, negative = inhibition [4]	activity change, negative = inhibition [5]
C[C@]12N[C@H](Cc3ccccc31)c1ccccc12	-13%	-1.4%	-1.89%	-10.6%	-1.21%
Cc1cccc(NC(=O)N2Cc3ccccc3-n3cccc3C2c2ccc(C(C)C)cc2)c1 (stereo not drawn)	-1.77%	6.83%	-2.2%	-1.31%	0.232%
O=C(N[C@@H]1N=C(c2ccccc2F)c2cccc3c2N(CC3)C1=O)c1cc2ccccc2[nH]1	-6.96%	-16.1%	-5.64%	-34%	-11.1%
CCOC(=O)Cc1ccc(NC(=O)N2Cc3ccccc3-n3cccc3C2C)cc1 (stereo not drawn)	7.34%	0.809%	-2.85%	0.536%	6.32%
CC(=O)O[C@H]1C(=O)[C@]2(C)C(O)C[C@H]3OC[C@@]3(OC(C)=O)[C@H]2[C@H](OC(=O)c2ccccc2)[C@]2(O)C[C@H](O)C(C)=C1C2(C)C (stereo partly drawn)	-3.1%	-12.3%	3.16%	-22.6%	-7.8%
NC(Cc1cc(O)c(O)cc1O)C(=O)O (stereo not drawn)	-70.5%	-9.91%	-29.7%	-18.7%	-5.92%
CC(=O)OC[C@]12C[C@H](OC(=O)CC(C)C)C(C)=C[C@H]1O[C@@H]1[C@H](O)[C@@H](OC(C)=O)[C@@]2(C)[C@@]12CO2	-0.222%	5.62%	2.89%	-9.33%	0.025%
COc1ccc(C2c3cccn3-c3ccccc3CN2C(=O)Nc2ccccc2Cl)cc1 (stereo not drawn)	8.27%	1.56%	3.18%	0.773%	5.37%
CC(=O)Nc1ccc(OC[C@](C)(O)C(=O)Nc2ccc([N+](=O)[O-])c(C(F)(F)F)c2)cc1	-1.07%	2.52%	10.3%	-11.7%	0.513%
CCOC(=O)c1cccc(NC(=O)N2Cc3ccccc3-n3cccc3C2c2cccc(Cl)c2)c1 (stereo not drawn)	11.7%	1.85%	5.99%	-1.03%	8.55%
COC(=O)c1ccc(NC(=O)N2Cc3ccccc3-n3cccc3C2c2ccccc2Cl)cc1 (stereo not drawn)	5.77%	0%	8.66%	-11%	-1.07%
O=C(NCc1ccccc1)c1cn(C2CNC2)nn1	-2.96%	1.17%	-0.342%	-7.5%	12.2%
CCOC(=O)c1cccc(NC(=O)N2Cc3ccccc3-n3cccc3C2c2ccc(CC)cc2)c1 (stereo not drawn)	7.44%	0%	-1.24%	-0.566%	6.03%
CC(N)Cc1c[nH]c2ccc(O)cc12 (stereo not drawn)	-6.84%	9.2%	-9.12%	-4.15%	2.28%
C[C@H]1CC[C@@H]2[C@@H](C)[C@H]3[C@H](C[C@H]4[C@@H]5CC=C6CC(O[C@@H]7O[C@H](CO)[C@@H](O)[C@H](O[C@@H]8O[C@H](CO)[C@@H](O)[C@H](O)[C@H]8O)[C@@H]7O[C@@H]7O[C@@H](C)[C@H](O)[C@@H](O)[C@H]7O)CC[C@]6(C)[C@H]5CC[C@]34C)N2C1 (stereo partly drawn)	0%	4.99%	3.06%	-7.47%	6.98%
CN(N=O)c1cc(O)ccc1O	-75.2%	-32.4%	-1.71%	-16.2%	-57.4%
O=C1CO[C@H]2CN(Cc3ccccc3)C[C@H]2N1Cc1cccnc1	0.77%	1.9%	1.66%	-2.03%	16.8%
CC1CCCC(O)CCC/C=C/c2cc(O)cc(O)c2C(=O)O1 (stereo not drawn)	0.096%	3.87%	5.94%	-16.3%	-4.21%
CN(C)c1ccc(C2c3cccn3-c3ccccc3CN2C(=O)Nc2cccc(C(F)(F)F)c2)cc1 (stereo not drawn)	14.4%	1.26%	3.94%	10.6%	10.1%
N#CC(O[C@@H]1O[C@H](CO[C@@H]2O[C@H](CO)[C@@H](O)[C@H](O)[C@H]2O)[C@@H](O)[C@H](O)[C@H]1O)c1ccccc1 (stereo partly drawn)	–	-1.85%	–	-14.7%	2.73%
COc1ccc(Cl)cc1NC(=O)N1Cc2ccccc2-n2cccc2C1c1ccccc1 (stereo not drawn)	2.66%	2.47%	-5.02%	-7.43%	0.314%
CSc1ccc(C2c3cccn3-c3ccccc3CN2C(=O)Nc2cccc(C)c2C)cc1 (stereo not drawn)	-0.011%	2.4%	2.6%	-3.23%	2.47%
CC(C)C1(OO)C=C2C(=O)CC3C(C)(C(=O)O)CCCC3(C)C2CC1 (stereo not drawn)	-0.165%	-2.15%	9.73%	-14.7%	-11.1%
CCCN(CCC)C1CCc2ccc(O)cc2C1 (stereo not drawn)	-1.78%	8.01%	-66.7%	-4.45%	10.4%
c1ccc(C2(c3ccccc3)CC2C2=NCCN2)cc1 (stereo not drawn)	4.29%	7.06%	-11.3%	-12.1%	3.45%
COc1ccc(C2c3cccn3-c3ccccc3CN2C(=O)Nc2ccc(F)cc2)cc1OC (stereo not drawn)	8.28%	1.22%	3.82%	2%	6.93%
N#CC(O[C@@H]1O[C@H](CO)[C@@H](O)[C@H](O)[C@H]1O)c1ccccc1 (stereo partly drawn)	2.66%	6.72%	6.94%	-8.33%	6.4%
O=C(NCc1ccccc1)N1Cc2ccccc2-n2cccc2C1c1cc(F)cc(F)c1 (stereo not drawn)	7.9%	0%	6.09%	3.51%	4.17%
CN(C)c1ccc(C2c3cccn3-c3ccccc3CN2C(=O)Nc2cccc3c2CCCC3)cc1 (stereo not drawn)	0.917%	5.55%	-9.2%	-6.01%	0.246%
